Publication PMC12136788
This is one part of the list.

T1: UNK ZnF1-3 (human, UniProt Q9C0B0 31-174)
T1 sequence: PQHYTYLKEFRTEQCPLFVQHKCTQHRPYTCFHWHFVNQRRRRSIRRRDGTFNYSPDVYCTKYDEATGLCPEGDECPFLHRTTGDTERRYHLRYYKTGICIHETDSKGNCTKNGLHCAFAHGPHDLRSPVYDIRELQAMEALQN

B1: chr1:163112212:163112213:-_ENSG00000143248_ENST00000313961|hu_hu|hu_hu_hu_mus_False|48_58 (ssRNA)
RNA: GGGAGUUCUACAGUCCGACGAUCUUUUAUUAUCAGUAAGAGUGAGUUACAUACUAGGCAAAGUAUUGGAUACAAUAUUCUAAAGAUAAACACAAUUGGUCCAGAAUUUAAAACUUUAUGAGCGAAGUGCUGGCACAGGACUUACAACAGAGGAUUGAGCAUCA
B2: chr4:57314706:57314707:+_ENSG00000128050_ENST00000264221|hu_mus|hu_hu_hu_mus_True|58_78 (ssRNA)
RNA: GGGAGUUCUACAGUCCGACGAUCCAGAAUUUCAAAAAUAGCUUGUGUGGCAUGACUCAUGAUAUCCACUUCAGUCUGGCCUAUAAGAAGGCCAGCAAAACAGAAUUUUGCAGCAAUGAGUUGCUCCUCAGACCACUGUGGAUCCAACAGAGGAUUGAGCAUCA
B3: chr16:94664741:94664742:+_ENSMUSG00000040785_ENSMUST00000117648|mus_hu|mus_mus_mus_hu_False|8_28 (ssRNA)
RNA: GGGAGUUCUACAGUCCGACGAUCUGGUACUGAUCUUGGUAGCUGAUAUUCAGGAGAAAGGCUGGCCAAGGGUGUAUAUAUGCUGGUGUACUGGGGCAAACCUGGUACCAUGUUAAUGUAUGCUGGCCGCUGGGUGAUGAUAUCCAACAGAGGAUUGAGCAUCA
B4: chr17:38556828:38556829:-_ENSG00000131747_ENST00000423485|hu_mus|FALSE|FALSE (ssRNA)
RNA: GGGAGUUCUACAGUCCGACGAUCAGUCCACGUUCGGAUGGGAAGCUCUGAGAUUUCAAUGGUUGUAGAAUCCAGAAUAGCUACUUCUCCAUUAAUCACAUACUGAUUUGAAGCCAGUUCUUCAAUAGUACCUUUGAAAUUCUUCAACAGAGGAUUGAGCAUCA
B5: chr2:27656205:27656206:+_ENSG00000115216_ENST00000379852|hu_hu|FALSE|FALSE (ssRNA)
RNA: GGGAGUUCUACAGUCCGACGAUCACUGAUGUCAGGCCAGGAGCUGAAGAUGAGGAUUCUACCUUUGGGUCUGAGCCACUGCUAAGUACUGUCUGGGACUCCCCCUCCGACAUGCUGGAAGGAACACUCAGGCCUCCCGACUCCCAACAGAGGAUUGAGCAUCA
B6: chr2:66667028:66667029:+_ENSG00000143995_ENST00000407092|perfect_dup|FALSE|FALSE (ssRNA)
RNA: GGGAGUUCUACAGUCCGACGAUCCUCUGACGAGCAGACGUCCCCGCCCGCCACCCCCGGCUCGCGGGGGGUACAAGUAGCUAAUUCACAUUUCUCAAAAAUCAGUGCUAAGAGAGGGAAGAGGGGGUGUCCAUAAAUGGCAUCCAACAGAGGAUUGAGCAUCA

Each binder was assayed against T1, UNK ZnF1-3 (assay: nsRBNS (natural sequence RNA bind-n-seq); RBNS binding buffer (assumed for nsRBNS): 25 mM Tris pH 7.5, 150 mM KCl, 3 mM MgCl2, 0.01% Triton X-100, 500 ug/ml BSA, 20 U/ml SUPERase-In, 4 C; UNK is unkempt and MSI1 is Musashi-1; names of the RNAs are library labels; protein concentration not given here; high values mean tight binding).

Binder	binding signal
B1	1.28 enrichment R
B2	0.963 enrichment R
B3	0.844 enrichment R
B4	1.07 enrichment R
B5	0.739 enrichment R
B6	1.27 enrichment R
